Experimental data from paper PMC10320511.
Results are given in words; binding and its absence hold for the method and conditions named. Binding seen in cells or lysates may run through a third protein. Where a sequence is shown, tags or fusion partners need not be part of it.

Tests used:
[1] = biological target: T1, FRQ E183A, E187A, V5H6-tagged (Neurospora crassa) (UniProt P19970); test: co-IP; V5H6-tagged FRQ (wild type or mutant) pulled down with V5 agarose from Neurospora lysate (cultures in the light, 25 °C); 50 mM Hepes pH 7.4, 137 mM NaCl, 10% glycerol, 0.4% NP-40; 4 °C, 2 h; Western blot with FRQ, FRH, WC-1 and WC-2 antibodies
T1 sequence: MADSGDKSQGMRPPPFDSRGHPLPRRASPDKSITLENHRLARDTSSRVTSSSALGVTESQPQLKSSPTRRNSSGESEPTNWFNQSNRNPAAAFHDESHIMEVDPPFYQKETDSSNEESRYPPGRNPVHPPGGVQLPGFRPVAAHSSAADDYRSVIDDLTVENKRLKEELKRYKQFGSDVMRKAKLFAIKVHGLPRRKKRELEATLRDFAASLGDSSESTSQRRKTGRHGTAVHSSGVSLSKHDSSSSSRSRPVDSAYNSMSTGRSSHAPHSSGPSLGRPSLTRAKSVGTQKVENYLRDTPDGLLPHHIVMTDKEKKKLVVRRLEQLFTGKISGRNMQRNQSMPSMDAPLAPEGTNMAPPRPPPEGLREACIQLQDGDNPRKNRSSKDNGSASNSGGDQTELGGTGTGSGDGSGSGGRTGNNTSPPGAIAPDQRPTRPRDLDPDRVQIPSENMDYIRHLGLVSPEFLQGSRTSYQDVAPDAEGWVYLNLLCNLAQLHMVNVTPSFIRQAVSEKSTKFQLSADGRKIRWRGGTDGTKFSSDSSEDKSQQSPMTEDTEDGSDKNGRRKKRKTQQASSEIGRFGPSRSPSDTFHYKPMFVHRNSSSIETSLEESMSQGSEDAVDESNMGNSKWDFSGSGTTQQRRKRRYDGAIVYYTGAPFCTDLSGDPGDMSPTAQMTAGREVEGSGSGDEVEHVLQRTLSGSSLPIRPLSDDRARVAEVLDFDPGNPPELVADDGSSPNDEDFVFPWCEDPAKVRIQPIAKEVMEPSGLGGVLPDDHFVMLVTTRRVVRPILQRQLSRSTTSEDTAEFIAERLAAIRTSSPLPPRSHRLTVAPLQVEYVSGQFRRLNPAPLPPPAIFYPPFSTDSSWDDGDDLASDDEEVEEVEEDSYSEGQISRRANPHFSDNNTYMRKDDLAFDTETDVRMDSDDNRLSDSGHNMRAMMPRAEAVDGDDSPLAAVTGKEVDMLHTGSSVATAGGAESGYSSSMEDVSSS

[2] = biological target: T2, FRQ Δ194–199, V5H6-tagged (Neurospora crassa) (UniProt P19970); test: as above
T2 sequence: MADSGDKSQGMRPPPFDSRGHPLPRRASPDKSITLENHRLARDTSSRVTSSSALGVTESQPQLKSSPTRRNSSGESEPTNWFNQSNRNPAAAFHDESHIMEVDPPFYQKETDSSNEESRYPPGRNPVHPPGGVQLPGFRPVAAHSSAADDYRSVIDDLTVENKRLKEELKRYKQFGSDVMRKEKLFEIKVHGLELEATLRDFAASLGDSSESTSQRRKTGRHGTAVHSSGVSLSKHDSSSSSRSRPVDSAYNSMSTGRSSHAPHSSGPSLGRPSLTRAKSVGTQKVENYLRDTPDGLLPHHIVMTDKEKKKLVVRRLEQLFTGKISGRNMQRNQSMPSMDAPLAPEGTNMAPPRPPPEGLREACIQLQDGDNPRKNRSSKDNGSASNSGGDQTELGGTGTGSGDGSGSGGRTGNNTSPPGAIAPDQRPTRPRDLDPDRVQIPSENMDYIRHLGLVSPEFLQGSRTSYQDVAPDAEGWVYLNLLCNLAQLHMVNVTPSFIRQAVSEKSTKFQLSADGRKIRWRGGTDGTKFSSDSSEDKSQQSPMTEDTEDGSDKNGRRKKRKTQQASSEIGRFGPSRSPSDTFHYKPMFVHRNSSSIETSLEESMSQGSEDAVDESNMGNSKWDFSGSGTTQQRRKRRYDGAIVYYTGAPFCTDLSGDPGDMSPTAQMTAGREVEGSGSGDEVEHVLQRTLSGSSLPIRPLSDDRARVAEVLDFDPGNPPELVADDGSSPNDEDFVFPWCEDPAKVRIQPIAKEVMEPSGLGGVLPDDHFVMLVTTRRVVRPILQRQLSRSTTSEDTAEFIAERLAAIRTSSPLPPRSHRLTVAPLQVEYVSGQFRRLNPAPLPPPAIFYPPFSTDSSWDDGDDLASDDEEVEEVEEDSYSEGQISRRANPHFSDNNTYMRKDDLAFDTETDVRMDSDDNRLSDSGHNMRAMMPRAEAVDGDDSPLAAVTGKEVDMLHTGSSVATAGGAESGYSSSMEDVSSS

B1: White Collar-2 (WC-2) (protein, UniProt P78714 1-530)
chain: MSHGQPPPGSSMYGFGAMGMGSGMGSGMGSGMGTGMGTGMGTGMSASQMTSDPQDMMSLLDTSVFPGFDGMSMSLDVGDSMSNPFTPVSVPPPLPAGNAGPSHVGVCGGHGAPDQLFSPDDLIATSMSSAGPMIATPTTTTSGPSGGPSSGGGSTLTEFTKRRNWPAKVVEELQDWEHILDANGRIKHVSPSVEPLTGYKPPEIIDLFLRDLIHPDDVGVFTAELNEAIATGSQLRLFYRFRKKDGNWTIFETVGHAHIAAAKFAPNPQNQSPFCQAVFMMARPYPTKNAGLLDSFLEHKIENERLKRRIAELRREEQEEQEESHRTWRMSQEGRSDVTPSDDTATQMGMTPFYIPMNAQADVMMPPPSQPASSLNIALTRENLEGIAGSRPDSIREKMLRYEGNHADTIEMLTGLKYQEGERSHGITTGNASPTLIKGDAGIAIPLDRDPRTGEKKKKIKVAEEYVCTDCGTLDSPEWRKGPSGPKTLCNACGLRWAKKEKKKNANNNNNGGGIGGHNDIHTPMGDHMG
binding [1]: no binding | binding [2]: no binding
